From PubChem BioAssay AID686979 (National Center for Advancing Translational Sciences (NCATS), 2013)
The campaign covered roughly 420,000 compounds. About 50,000 (12%) were called active. Inconclusive means that the source gave no clear call. Such entries were picked first, then a sample of the others. Calls follow the shape of the dose curve; as a rule, active = well fitted inhibition curve with a large enough effect; inconclusive = small, poorly fitted or top-dose-only effect; inactive = flat fitted curve, though single readings scatter. Potencies of inconclusive entries are left out as doubtful fits.

Test: qHTS for Inhibitors of human tyrosyl-DNA phosphodiesterase 1 (TDP1): qHTS in cells in presence of CPT; also: nearly all actives have a fitted effect of over 55% in size
Settings: chicken DT40 Tdp1-/-;hTDP1 cells + 20 nM CPT, ATP luminescence, 48 h; activity change, negative = growth inhibition: at 46.2 µM (top of the series) unless noted
Summary of the method: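 Chicken DT40 Tdp1-/- cells stably complemented with human TDP1 were seeded at 400 cells/well in medium containing 20 nM camptothecin, exposed to pin-transferred compounds, and grown at 37 °C for at least 48 hr. Viability was read as ATP luminescence.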
% is scaled to controls: 0 for no effect and ±100 for the full control effect; potency is read from the fitted curve at half-maximal effect; tags tell the direction and shape of the fitted curve.

| SMILES | Potency | activity change, negative = growth inhibition |
| --- | --- | --- |
| CCc1ccc(OCCNC(=O)c2cc(SC)ccc2Cl)cc1 | inconclusive [inhibitor, single point] |  |
| CC(C)=CCC/C(C)=C/C(=O)O |  | inactive: -5.06% |
| Cc1ccccc1NC(=O)c1nnn(-c2ccc3c(c2)OCCO3)c1N |  | inactive: 0.946% |
| Cc1ccccc1CCNC(=O)c1cc(C2CC2)nc2c1cnn2C(C)C | active: 20.6 µM |  |
| CCC(C)Oc1cc(-c2ccnc(Nc3cccc(Cl)c3)n2)ccn1 (stereo not given) | inconclusive [inhibitor, single point] |  |
| COc1cccc(CNC(=O)CSc2ccc(-c3cccs3)nn2)c1 |  | inactive: -0.109% |
| CC1=C(c2ccc(C(C)C)cc2)S(=O)(=O)N=C1N1CCC(C(=O)NCc2ccccc2)CC1 | inconclusive [inhibitor, single point] |  |
| COC(=O)c1cc(-c2ccc(C)o2)nc2ccccc12 | active: 7.31 µM |  |
| CN(CC(=O)NCc1ccc(F)cc1)CC(=O)Nc1ccc(Cl)c(C(F)(F)F)c1 | active: 23.1 µM |  |
| C/C(=N\NC(=O)c1cc(-c2cccc(OC(C)C)c2)nc2ccccc12)c1cccnc1 | active: 10.3 µM |  |
| COc1ccc(C2C(C)C(=O)C(C)C(c3ccc(OC)cc3)N2N=O)cc1 (stereo not given) |  | inactive: -14.5% |
| CCn1c(C(=O)NCc2ccccc2OC)cc2sccc21 | inconclusive [inhibitor, partial curve] |  |
| COc1ccc(S(=O)(=O)N2CCc3ccccc32)cc1C(=O)OCc1c(C)noc1C | inconclusive [inhibitor, partial curve] |  |
| CCOc1ccccc1CNC(=O)C1CCN(S(=O)(=O)c2c(C)noc2/C=C/c2ccccc2F)CC1 |  | inactive: -24.1% |
| O=C(CSc1nnnn1C1CC1)N1CCN(c2ccc(O)cc2)CC1 | inconclusive [inhibitor, single point] |  |
| Cc1ccc(C(=O)NCCn2cc(SCC(=O)N3CCOCC3)c3ccccc32)cc1 | inconclusive [inhibitor, single point] |  |
| COc1ccc(-c2nc(CSCC(=O)NC3CCCc4ccccc43)c(C)o2)cc1 (stereo not given) | inconclusive [inhibitor, single point] |  |
| COc1ccc(NC(=O)C2CC(c3c(F)cccc3Cl)=NO2)cc1OC (stereo not given) | inconclusive [inhibitor, single point] |  |
| COc1ccc(NC(=O)C2CCCN(C(=O)Nc3ccc(F)cc3)C2)cc1 (stereo not given) |  | inactive: 6.82% |
| COC(=O)c1nnn(-c2ccc(F)c(Cl)c2)c1C(=O)OC |  | inactive: -4.58% |
| COC(=O)c1cc(CSc2nc3ccccc3c(=O)n2C)oc1C | inconclusive [inhibitor, single point] |  |
| Cn1c(SCc2cccc(Br)c2)nc2c1c(=O)[nH]c(=O)n2C | inconclusive [inhibitor, partial curve] |  |
| C=C[C@H](CC(C)C)N(Cc1ccccc1)S(=O)(=O)N(Cc1ccc(OC)cc1)[C@H](C=C)CC(C)C | inconclusive [inhibitor, single point] |  |
| CCN1C(=O)[C@H]2[C@@H](c3ccc(-c4cccc(Cl)c4)c(OC)c3)N[C@@](C)(C(=O)OC)[C@H]2C1=O | active: 13 µM |  |

| SMILES | Potency | activity change, negative = growth inhibition |
| --- | --- | --- |
| C[C@H](CO)N1C[C@H](C)[C@@H](CN(C)Cc2cncnc2)Oc2cc(Br)ccc2S1(=O)=O | inconclusive [inhibitor, single point] |  |
| COc1cc(C2C3=C(CCCC3=O)Nc3ccc4ncccc4c32)ccc1O (stereo not given) | active: 6.51 µM |  |
| COc1ccc(-n2ccnc(NCc3cccs3)c2=O)cc1OC | inconclusive [inhibitor, single point] |  |
| CCOC(=O)N1CCN(S(=O)(=O)N2CCCC(C(=O)NCCc3ccc(Cl)cc3)C2)CC1 (stereo not given) | inconclusive [inhibitor, partial curve, poor fit] |  |
| CCOC(=O)C1=C(C)N=c2sc(=Cc3cc(Cl)c(OCC(=O)O)c(OC)c3)c(=O)n2C1c1ccccc1Cl (stereo not given) | inconclusive [inhibitor, single point] |  |
| Cc1ccc(NC(=O)N2CCCC2C(=O)Nc2ccc3c(c2)OCO3)cc1 (stereo not given) |  | inactive: 1.32% |
| CCOc1ccc(NC(=O)CSC2=Nc3ccccc3C3=NC(CC(=O)NCc4ccc5c(c4)OCO5)C(=O)N23)cc1 (stereo not given) | inconclusive [inhibitor, single point] |  |
| Cc1ccc(C)c(-n2nnnc2SCC(=O)c2ccc3c(c2)NC(=O)CO3)c1 | inconclusive [inhibitor, single point] |  |
| COc1ccc([N+](=O)[O-])cc1/C=N/Nc1nn[nH]n1 | inconclusive [inhibitor, single point] |  |
| O=C(CCC(=O)N1CCN(S(=O)(=O)c2ccc3ccccc3c2)CC1)NCC(F)(F)F |  | inactive: -1.36% |
| COc1cc(/C=C2\CCC(C3CCCC3)C2=O)ccc1OC(C)C (stereo not given) | inconclusive [inhibitor, partial curve] |  |
| COc1ccccc1NS(=O)(=O)c1cc(NC(=O)c2ccc(=O)[nH]c2)ccc1N1CCOCC1 | inconclusive [inhibitor, single point] |  |
| Cc1cccc(/C=N/NC(=O)c2cc(C)nc3ccccc23)n1 | inconclusive [inhibitor, single point] |  |
| Nc1cccc(Oc2ccc([N+](=O)[O-])cc2)c1 |  | inactive: -8.72% |
| N#CCCn1c(=O)c(-c2cccs2)nc2cnc(OCc3ccccc3)nc21 |  | inactive: 13.5% |
| CCc1nnc(NC(=O)CS(=O)(=O)c2ccccc2)s1 |  | inactive: -11.8% |
| Cc1c(NC(=O)c2cc3nc(-c4ccc(Cl)cc4)cc(C(F)(F)F)n3n2)c(=O)n(-c2ccccc2)n1C | inconclusive [inhibitor, single point] |  |
| CCN(C(=O)c1cn(CC)c(=O)c2cc(OC)c(OC)cc12)c1ccccc1C | inconclusive [inhibitor, partial curve] |  |
| COc1cc(C)ccc1OCCSc1nnc(-c2ccc(C)cc2)o1 | inconclusive [inhibitor, single point] |  |
| CCC(=O)Nc1ccc(C(=O)N2CCN(C(=O)c3ccco3)CC2)cc1 |  | inactive: -9.24% |
| Cc1ccc(-n2nnnc2-c2cnc3ccc(Cl)cc3c2-c2ccccc2)cc1 | inconclusive [inhibitor, single point] |  |
| O=C(OCc1cc(=O)n2c3c(sc2n1)CCCC3)c1cccc(NC(=O)c2ccccc2F)c1 | inconclusive [inhibitor, single point] |  |
| O=C(CCC(=O)N1CCOc2ccc(Cl)cc21)NCCCN1CCC(Cc2ccccc2)CC1 | inconclusive [inhibitor, single point] |  |
| O=C1N(Cc2ccc(F)cc2Cl)c2ccccc2C12OCCCO2 | inconclusive [inhibitor, single point] |  |

| SMILES | Potency | activity change, negative = growth inhibition |
| --- | --- | --- |
| Cc1cccc(/C=C2\Sc3ccc(C(=O)N4CCC(C)CC4)cc3N(C)C2=O)c1 | inconclusive [inhibitor, single point] |  |
| O=C(Nc1ccc(NS(=O)(=O)c2ccccc2)cc1)c1ccccc1Cl | inconclusive [inhibitor, single point] |  |
| CCOC(=O)C1=CCN(S(=O)(=O)c2ccc(C)cc2)C1c1cccc(Cl)c1 (stereo not given) | inconclusive [inhibitor, single point] |  |
| COc1ccc(-c2nc3ccccc3n2Cc2ccc(Cl)cc2)cc1 | active: 20.6 µM |  |
| Cn1cc(CN2CCc3ccccc3C2)c2ccccc21 | active: 9.2 µM |  |
| CN1[C@@H](Cc2ccccc2)COc2cc(N3CCSCC3)ccc2S1(=O)=O | inconclusive [inhibitor, single point] |  |
| CCCN(CCC)S(=O)(=O)c1ccc(C(=O)NNC(=O)c2cc(OC)c(OC)c(OC)c2)cc1 |  | inactive: 0.53% |
| CC(=O)NC(CC(=O)N(C)Cc1cccc(Cl)c1Cl)c1ccccc1 (stereo not given) | inconclusive [inhibitor, full curve, poor fit] |  |
| CCC1(C2CCN(C(=O)c3ccc(C)cc3C)CC2)NC(=O)N(CCc2scnc2C)C1=O (stereo not given) |  | inactive: -4.61% [at 9.04 µM] |
| CCCN(C)C[C@@H]1OCCCC[C@@H](C)Oc2ccc(NC(=O)c3ccccc3)cc2C(=O)N([C@H](C)CO)C[C@@H]1C | inconclusive [inhibitor, single point] |  |
| Cc1ccc2c(c1)N(CC(=O)Nc1ccc3c(c1)OCCO3)C(=O)CO2 |  | inconclusive: -31.3% [inhibitor] |
| Cc1ccc(NC(=O)CNc2cccc(S(=O)(=O)N3CCCC3)c2)cc1F |  | inactive: -20.1% |
| CCc1n[nH]c(=S)n1/N=C/c1ccccc1OCc1ccc(Cl)cc1 |  | inactive: -7.24% |
| CCCCCC(=O)N1CCN(c2ccc(C(C)=O)cc2F)CC1 | active: 14.6 µM |  |
| Cc1cc2ccccc2c(=O)n1CC(=O)NCc1ccco1 |  | inactive: -7.9% |
| COc1ccccc1C(=O)Nc1ccc(-c2nc3ccccc3s2)c(C)c1 | inconclusive [inhibitor, single point] |  |
| O=C(NCCC1=CCCCC1)C1CCN(S(=O)(=O)c2cccs2)CC1 | inconclusive [inhibitor, single point] |  |
| CNc1nc(NCc2ccccc2)c2ccccc2n1 | active: 13 µM |  |
| O=C(c1ccc(F)cc1F)N1CCCC(c2nc(-c3cccs3)no2)C1 (stereo not given) |  | inconclusive: -30.1% [inhibitor] |
| Cc1nn(-c2ccc(F)cc2)c(Cl)c1C(=O)OC(C)C(=O)N(C)C1CCCCC1 (stereo not given) | inconclusive [inhibitor, single point] |  |
| CCOC(=O)C1Oc2ccccc2C(C(=O)OC)=C1C(=O)OC (stereo not given) |  | inactive: -14.5% |
| O=C1CN(C(=O)c2ccc3nc(Cc4cccc(Cl)c4)oc3c2)CCN1 |  | inactive: 21.2% |
